The whole screen tested about 2,000 compounds, of which about 110 (5.5%) showed an effect of 50% or more. This is one part of the list.
Target: Genome polyprotein (dengue virus type 2) (UniProt P29990)
[1] = Thailand/16681/1984, Concentration 25.0 uM, Number of replicates 1.0

SMILES: O=Cc1ccc(N2CCC(C(=O)N3CCN(CCc4ccncc4)CC3)CC2)cc1
- inhibition [1]: 9.91%

SMILES: CNC(=O)c1nccnc1NS(=O)(=O)c1ccc(Oc2ccccc2Cl)cc1
- inhibition (Thailand/16681/1984, Concentration 49.5 uM, Number of replicates 2.0, Standard deviation 1.5095148361141704 %): 0.146%
- inhibition (Thailand/16681/1984, Concentration 99.01 uM, Number of replicates 2.0, Standard deviation 1.499470483470751 %): 2.7%
- inhibition (Thailand/16681/1984, Concentration 198.0 uM, Number of replicates 2.0, Standard deviation 0.45486328764545614 %): 7.74%

SMILES: Cc1cc(CO)c2cccc(Cc3ccccc3C(=O)Nc3cc(C)on3)c2n1
- inhibition (Thailand/16681/1984, Concentration 49.95 uM, Number of replicates 2.0, Standard deviation 1.5788782649320652 %): 8.61%
- inhibition (Thailand/16681/1984, Concentration 99.9 uM, Number of replicates 2.0, Standard deviation 0.4297535440018178 %): 25.7%

SMILES: CNS(=O)(=O)c1ccc(CNCc2ccc(N3CCN(C)CC3)cc2)cc1
- inhibition (Thailand/16681/1984, Concentration 49.5 uM, Number of replicates 2.0, Standard deviation 0.2679515396874046 %): -1.41%
- inhibition (Thailand/16681/1984, Concentration 99.01 uM, Number of replicates 2.0, Standard deviation 0.0046358372348345115 %): -0.423%
- inhibition (Thailand/16681/1984, Concentration 198.0 uM, Number of replicates 2.0, Standard deviation 1.744466130987394 %): 0.949%

SMILES: N#Cc1cnn(-c2ccc([N+](=O)[O-])cc2)c1NC(=O)C1CCN(c2ccc(C=O)cc2)CC1
- inhibition [1]: 18.2%

SMILES: O=Cc1ccc(N2CCC(C(=O)N3CCC(c4nc5ccccc5s4)CC3)CC2)cc1
- inhibition [1]: 14.3%

SMILES: CCc1cccc2[nH]c(C(=O)N3C[C@H](n4cc(CO)nn4)CCC3(C)C)cc12
- inhibition (Thailand/16681/1984, Concentration 49.5 uM, Number of replicates 2.0, Standard deviation 2.369908946691566 %): -0.621%
- inhibition (Thailand/16681/1984, Concentration 99.01 uM, Number of replicates 2.0, Standard deviation 3.0056614926708067 %): 1.41%
- inhibition (Thailand/16681/1984, Concentration 198.0 uM, Number of replicates 2.0, Standard deviation 1.5510891618348923 %): 3.23%

SMILES: COc1ccccc1OCCCN(C)C(=O)C1CCN(c2ccc(C=O)cc2)CC1
- inhibition [1]: 12%

SMILES: O=Cc1ccc(N2CCC(C(=O)N3CCN(c4ccnc5cc(Cl)ccc45)CC3)CC2)cc1
- inhibition [1]: 1.86%

SMILES: COc1ccc(F)c(-c2nn(C)cc2NC(=O)c2ccccc2C(F)(F)F)c1
- inhibition (Thailand/16681/1984, Concentration 49.5 uM, Number of replicates 2.0, Standard deviation 3.583319549695768 %): -2.64%
- inhibition (Thailand/16681/1984, Concentration 99.01 uM, Number of replicates 2.0, Standard deviation 4.648656873158677 %): -2.47%
- inhibition (Thailand/16681/1984, Concentration 198.0 uM, Number of replicates 2.0, Standard deviation 3.7890463989356435 %): -2.09%

SMILES: O=Cc1ccc(N2CCC(C(=O)Nc3nc4cc(Cl)ccc4s3)CC2)cc1
- inhibition [1]: 11.6%

SMILES: O=Cc1ccc(N2CCC(C(=O)NC34C[C@@H]5C[C@@H](CC(O)(C5)C3)C4)CC2)cc1
- inhibition [1]: 15.4%

SMILES: Cc1nc2ccc(-c3ccccc3C(=O)Nc3cnn(C)c3)cn2n1
- inhibition (Thailand/16681/1984, Concentration 49.5 uM, Number of replicates 2.0, Standard deviation 3.543719624703675 %): -3.16%
- inhibition (Thailand/16681/1984, Concentration 99.01 uM, Number of replicates 2.0, Standard deviation 3.2974266339695943 %): -3.74%
- inhibition (Thailand/16681/1984, Concentration 198.0 uM, Number of replicates 2.0, Standard deviation 0.22311235049363462 %): -0.758%

SMILES: O=Cc1ccc(N2CCC(C(=O)N3CCC[C@H](C(=O)c4ccc(F)cc4)C3)CC2)cc1
- inhibition [1]: 12.9%

SMILES: CNc1ccccc1C(=O)Nc1ccccc1Cc1cccc2c(CO)cc(C)nc12
- inhibition (Thailand/16681/1984, Concentration 49.95 uM, Number of replicates 2.0, Standard deviation 0.9187611737377075 %): -6.32%
- inhibition (Thailand/16681/1984, Concentration 99.9 uM, Number of replicates 2.0, Standard deviation 0.9402243720481833 %): -7.75%

SMILES: O=Cc1ccc(N2CCC(C(=O)Nc3ccc(F)c(F)c3Br)CC2)cc1
- inhibition [1]: 12.7%

SMILES: NC[C@H]1C[C@@H](NC(=O)[C@@H](NC(=O)OCc2ccccc2)c2ccc(OCc3ccccc3)cc2)C1
- inhibition (Thailand/16681/1984, Concentration 49.5 uM, Number of replicates 2.0, Standard deviation 0.5017181762110399 %): 0.286%
- inhibition (Thailand/16681/1984, Concentration 99.01 uM, Number of replicates 2.0, Standard deviation 0.21656888367492427 %): 3.78%
- inhibition (Thailand/16681/1984, Concentration 198.0 uM, Number of replicates 2.0, Standard deviation 0.021656062289261615 %): 26.3%

SMILES: NC(=O)c1cn(C[C@H]2CCCN2c2ccc3c(Cl)cc(Cl)cc3n2)nn1
- inhibition (Thailand/16681/1984, Concentration 49.5 uM, Number of replicates 2.0, Standard deviation 0.09143556479565608 %): 2.52%
- inhibition (Thailand/16681/1984, Concentration 99.01 uM, Number of replicates 2.0, Standard deviation 2.0692726945713575 %): 12%
- inhibition (Thailand/16681/1984, Concentration 198.0 uM, Number of replicates 2.0, Standard deviation 0.7581530210542139 %): 8.44%

SMILES: O=Cc1ccc(N2CCC(C(=O)N3CCNC(=O)[C@@H]3c3ccccc3)CC2)cc1
- inhibition [1]: 13.4%

SMILES: CN(Cc1nccn1Cc1ccccc1)C(=O)C1CCN(c2ccc(C=O)cc2)CC1
- inhibition [1]: 12.9%

SMILES: CNC(=O)C1CN(S(=O)(=O)c2ccc(Oc3ccccc3Cl)cc2)C1
- inhibition (Thailand/16681/1984, Concentration 49.5 uM, Number of replicates 2.0, Standard deviation 0.6617609868736767 %): -2.91%
- inhibition (Thailand/16681/1984, Concentration 99.01 uM, Number of replicates 2.0, Standard deviation 1.3201843648137757 %): -2.25%
- inhibition (Thailand/16681/1984, Concentration 198.0 uM, Number of replicates 2.0, Standard deviation 0.8810764542255104 %): -0.895%

SMILES: O=Cc1ccc(N2CCC(C(=O)N3CCN(c4nccs4)CC3)CC2)cc1
- inhibition [1]: 13.6%

SMILES: O=Cc1ccc(N2CCC(C(=O)N3CC(OCc4ccccc4)C3)CC2)cc1
- inhibition [1]: 13.4%

Source: ChEMBL document CHEMBL5606460, “ASAP - DENV-2 NS2B-NS3 protease fluorescence single point” (2024)
